From article PMC4336329 (PLoS ONE, 2015)
Among all 310,000 compounds or so, about 14,000 (4.5%) showed an effect of 50% or more. Effects have a minus sign here. This is one part of the list.

molecular target: human ether-à-go-go-related gene (hERG) potassium channel (human, UniProt Q12809); experiment: primary screen, population patch clamp on CHO cells stably expressing hERG
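Note: peak tail current of the secondary pulse compared with the same well before compound.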

human ether-à-go-go-related gene (hERG) potassium channel, sequence (Q12809 whole entry, looked up): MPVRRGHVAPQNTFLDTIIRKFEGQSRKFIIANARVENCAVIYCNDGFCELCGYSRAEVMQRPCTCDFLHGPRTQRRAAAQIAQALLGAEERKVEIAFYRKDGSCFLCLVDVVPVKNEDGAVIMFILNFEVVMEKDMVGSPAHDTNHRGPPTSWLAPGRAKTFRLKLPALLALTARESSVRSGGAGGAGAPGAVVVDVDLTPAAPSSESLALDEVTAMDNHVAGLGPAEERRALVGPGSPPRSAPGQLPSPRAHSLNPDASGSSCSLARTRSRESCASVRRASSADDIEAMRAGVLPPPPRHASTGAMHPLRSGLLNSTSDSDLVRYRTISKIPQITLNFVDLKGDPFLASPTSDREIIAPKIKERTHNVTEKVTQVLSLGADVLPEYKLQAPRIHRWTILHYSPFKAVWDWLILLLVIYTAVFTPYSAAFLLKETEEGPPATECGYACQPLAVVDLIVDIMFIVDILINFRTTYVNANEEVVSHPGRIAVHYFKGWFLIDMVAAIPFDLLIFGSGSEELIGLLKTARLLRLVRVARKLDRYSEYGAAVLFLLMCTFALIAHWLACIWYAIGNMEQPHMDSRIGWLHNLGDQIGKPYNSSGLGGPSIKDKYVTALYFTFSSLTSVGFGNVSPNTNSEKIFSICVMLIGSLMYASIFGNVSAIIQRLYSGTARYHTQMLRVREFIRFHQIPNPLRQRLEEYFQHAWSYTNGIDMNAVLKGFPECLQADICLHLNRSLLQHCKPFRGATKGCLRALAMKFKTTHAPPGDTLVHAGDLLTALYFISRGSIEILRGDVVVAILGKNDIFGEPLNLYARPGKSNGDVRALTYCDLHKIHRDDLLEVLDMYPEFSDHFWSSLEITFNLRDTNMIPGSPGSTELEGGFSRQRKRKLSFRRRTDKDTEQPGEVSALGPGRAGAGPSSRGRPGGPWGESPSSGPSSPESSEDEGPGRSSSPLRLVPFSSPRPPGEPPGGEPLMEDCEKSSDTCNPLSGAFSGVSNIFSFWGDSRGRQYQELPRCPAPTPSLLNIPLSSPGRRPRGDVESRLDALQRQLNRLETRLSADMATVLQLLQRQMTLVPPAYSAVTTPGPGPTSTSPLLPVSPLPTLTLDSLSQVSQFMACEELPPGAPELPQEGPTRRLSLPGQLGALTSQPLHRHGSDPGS

Structure (SMILES)	hERG current change (%, negative = inhibition) at 10uM [%]
Cl.O=C(COc1ccc(Cl)cc1)NCCN1CCCC1	-40
O=C(NCC1CCCO1)c1cc2c(s1)CCCC2 (stereo not drawn)	19.6
CN(C)C(=S)NCc1ccccc1	13.9
CC(=O)Nc1ccc(NC(=O)CSc2nnnn2C2CCCCC2)cc1	-8.79
O=C(NCCc1c[nH]c2ccccc12)/C(=C\c1cccs1)NC(=O)c1ccccc1	-33.4
NC(=O)c1nc(-c2cccs2)nc2c1[nH]c(=O)n2-c1ccc(F)cc1	12.6
O=C(O)C1CC=CCC1C(=O)N1CC=C(c2ccccc2)CC1 (stereo not drawn)	-9.56
CCc1cccc(C)c1NC(=O)CCN1C(=O)NC(C)(C)C1=O	8.82
Cc1ccc(N2CC(C(=O)Nc3nnc(SCCN4CCOCC4)s3)CC2=O)cc1 (stereo not drawn)	3.31
Clc1cccc(CON/C=N/c2ncnc3sccc23)c1	-19.9
COc1ccc(Cl)cc1N1C(=O)C2CCCN2C1c1ccccc1F (stereo not drawn)	-0.486
COc1cccc(C(=O)OCC(=O)Nc2cc(C)c(C)cc2[N+](=O)[O-])c1	11.9
O=C(CCCN=C1NS(=O)(=O)c2ccccc21)OCc1cc([N+](=O)[O-])cc2c1OCOC2	-14.7
Cc1ccc(C2CC(c3ccccc3)=NN2C(=S)Nc2ccccc2)o1 (stereo not drawn)	7.14
CCC(Sc1nncn1C)C(=O)Nc1ccccc1OC (stereo not drawn)	-1.77
Cc1ccc(S(=O)(=O)NNC(=O)CCC(=O)Nc2ccccc2)cc1	8.95
Cl.Clc1ccc(CN2C3=NCCN3c3ccccc32)cc1	-69.5
COC(=O)c1ccccc1NC(=O)C(C)c1ccc([N+](=O)[O-])cc1 (stereo not drawn)	22.2
Cc1ccc(C)c(S(=O)(=O)N2CCN(c3ncccn3)CC2)c1	21.5
Cc1ccc2[nH]c3c(NCc4ccco4)ncnc3c2c1	-14.1
Cc1ccc(OCCN2C(=O)CSC2=O)cc1	-0.132
CC(C)=CCN1CCN(Cc2cccc3nccnc23)CC1CCO (stereo not drawn)	-8.42
CCn1nc(C(=O)OCC(=O)c2c[nH]c3ccccc23)c2ccccc2c1=O	-19.4

Structure (SMILES)	hERG current change (%, negative = inhibition) at 10uM [%]
COc1ccccc1N1C(=O)S/C(=C\c2cccs2)C1=O	16.7
CN(C)c1ccc(/C=N/NC2=NS(=O)(=O)c3ccccc32)cc1	21.4
C=CCn1c(SCC(=O)Nc2cccc(S(N)(=O)=O)c2)nnc1C1CCCCC1	0.944
Cc1ccc(S(=O)(=O)N2CCN(C(=O)c3ccco3)CC2)cc1	1.15
Cc1cc(C)c(C(=O)COC(=O)CCn2c(C)csc2=O)cc1C	-18.3
Cc1ccc(C(=O)N/C(=C/c2ccco2)C(=O)NCC2CCCO2)cc1 (stereo not drawn)	-10.3
Cl.c1ccc(CCn2nnnc2C(c2cccs2)N2CCN(Cc3ccc4c(c3)OCO4)CC2)cc1 (stereo not drawn)	-24.1
CCN(CC)CCNC(=O)c1ccc(NC(=O)C2CC(=O)N(c3ccc4c(c3)OCCO4)C2)cc1 (stereo not drawn)	5.35
CCN(Cc1ccccc1)Cc1c(F)cccc1F	-0.224
COc1cccc(CC(NC(C)=O)C(=O)NC2CCN(c3c4c(nc5ncnn35)CCC4)CC2)c1OC (stereo not drawn)	7.94
Cc1ccn(Cc2n[nH]c(=S)n2Cc2ccccc2)n1	-0.149
CC(C)CN1CCN(Cc2cccc3ncccc23)CC1CCO (stereo not drawn)	-2.49
CCc1cc(=O)oc2c(CNCc3ccc(OC)cc3OC)c(O)c(Cl)cc12.Cl	13.3
COc1ccc(NC(=O)c2ccc3ccccc3n2)cc1S(=O)(=O)Nc1ccccc1Cl	26.4
O=C1c2ccccc2C(Nc2ccc(S(=O)(=O)N3CCOCC3)cc2)N1c1cccnc1 (stereo not drawn)	-15
COc1ccc(C)cc1NC(=O)c1cc2ccccc2o1	2.98
O=C(COc1ccc(Br)cc1CO)Nc1ccc(S(=O)(=O)N2CCCCC2)cc1	-22.9
CC(=O)Nc1ccc(NS(=O)(=O)c2cc(Cl)ccc2Cl)cc1	-14.8
O=C(CNS(=O)(=O)c1c(Cl)cccc1Cl)OCC(=O)c1ccc[nH]1	-1.58
CCOc1cc(CNc2ccc(OC)cc2)cc(Br)c1OCC(=O)NC(C)(C)C	0.824
Cc1cccc(C)c1NC(=O)COC(=O)C1CC(=O)N(Cc2ccccc2)C1 (stereo not drawn)	-1.53
O=c1oc2cc(O)ccc2s1	15.4
